# Test results published in patent US20170152300A1 (CSL, published 2017).
# T1: recombinant Factor VIII (as described in Zollner et al 2013) (Homo sapiens (Human), UniProt P00451 20-2351)
# T1 construct: also called FVIII
# T1 sequence: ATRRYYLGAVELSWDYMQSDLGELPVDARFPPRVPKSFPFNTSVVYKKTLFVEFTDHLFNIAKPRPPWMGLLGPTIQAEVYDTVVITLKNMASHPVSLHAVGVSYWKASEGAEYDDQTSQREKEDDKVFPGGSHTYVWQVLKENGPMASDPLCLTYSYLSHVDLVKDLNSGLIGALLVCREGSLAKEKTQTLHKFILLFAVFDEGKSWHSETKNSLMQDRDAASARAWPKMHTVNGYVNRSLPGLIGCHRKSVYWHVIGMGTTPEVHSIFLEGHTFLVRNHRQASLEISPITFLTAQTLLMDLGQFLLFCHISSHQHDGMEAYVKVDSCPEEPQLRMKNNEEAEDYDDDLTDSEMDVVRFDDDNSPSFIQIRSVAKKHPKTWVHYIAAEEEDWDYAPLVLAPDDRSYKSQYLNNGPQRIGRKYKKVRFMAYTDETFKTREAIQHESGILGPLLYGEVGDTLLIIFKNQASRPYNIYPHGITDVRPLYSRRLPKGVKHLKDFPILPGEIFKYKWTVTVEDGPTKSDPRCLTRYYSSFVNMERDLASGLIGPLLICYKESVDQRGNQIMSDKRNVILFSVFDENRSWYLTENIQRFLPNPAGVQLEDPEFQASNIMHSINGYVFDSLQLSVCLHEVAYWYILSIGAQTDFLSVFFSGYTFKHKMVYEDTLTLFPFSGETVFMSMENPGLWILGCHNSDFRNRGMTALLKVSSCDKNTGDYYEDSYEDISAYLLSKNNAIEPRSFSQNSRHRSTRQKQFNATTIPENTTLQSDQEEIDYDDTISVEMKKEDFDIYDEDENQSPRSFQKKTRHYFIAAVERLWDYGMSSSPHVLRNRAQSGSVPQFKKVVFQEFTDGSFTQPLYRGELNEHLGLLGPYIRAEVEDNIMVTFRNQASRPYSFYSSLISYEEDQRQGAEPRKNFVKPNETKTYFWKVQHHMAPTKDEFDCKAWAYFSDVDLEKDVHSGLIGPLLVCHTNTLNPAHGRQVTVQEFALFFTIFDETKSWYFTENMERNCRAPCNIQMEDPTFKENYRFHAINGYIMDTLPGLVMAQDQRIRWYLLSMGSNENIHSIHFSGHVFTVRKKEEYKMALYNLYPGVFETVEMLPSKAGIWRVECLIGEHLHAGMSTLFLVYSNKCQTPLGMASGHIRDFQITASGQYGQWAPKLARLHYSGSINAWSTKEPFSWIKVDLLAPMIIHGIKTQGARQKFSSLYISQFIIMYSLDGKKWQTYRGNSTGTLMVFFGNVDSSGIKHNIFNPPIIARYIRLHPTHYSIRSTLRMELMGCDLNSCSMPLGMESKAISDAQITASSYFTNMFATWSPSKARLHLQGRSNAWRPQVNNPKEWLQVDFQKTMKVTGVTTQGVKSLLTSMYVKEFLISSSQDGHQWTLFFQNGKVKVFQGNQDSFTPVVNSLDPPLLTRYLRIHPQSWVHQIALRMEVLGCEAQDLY
# B1: vWF-HSA dimer S764Y-S766Y (other)
# chain: YLYCRPPMVKLVCPADNLRAEGLECTKTCQNYDLECMSMGCVSGCLCPPGMVRHENRCVALERCPCFHQGKEYAPGETVKIGCNTCVCRDRKWNCTDHVCDATCSTIGMAHYLTFDGLKYLFPGECQYVLVQDYCGSNPGTFRILVGNKGCSHPSVKCKKRVTILVEGGEIELFDGEVNVKRPMKDETHFEVVESGRYIILLLGKALSVVWDRHLSISVVLKQTYQEKVCGLCGNFDGIQNNDLTSSNLQVEEDPVDFGNSWKVSSQCADTRKVPLDSSPATCHNNIMKQTMVDSSCRILTSDVFQDCNKLVDPEPYLDVCIYDTCSCESIGDCACFCDTIAAYAHVCAQHGKVVTWRTATLCPQSCEERNLRENGYECEWRYNSCAPACQVTCQHPEPLACPVQCVEGCHAHCPPGKILDELLQTCVDPEDCPVCEVAGRRFASGKKVTLNPSDPEHCQICHCDVVNLTCEACQEPGG[about 600 residues skipped]
# B2: vWF-HSA dimer S766Y-P769K (other)
# chain: SLYCRKPMVKLVCPADNLRAEGLECTKTCQNYDLECMSMGCVSGCLCPPGMVRHENRCVALERCPCFHQGKEYAPGETVKIGCNTCVCRDRKWNCTDHVCDATCSTIGMAHYLTFDGLKYLFPGECQYVLVQDYCGSNPGTFRILVGNKGCSHPSVKCKKRVTILVEGGEIELFDGEVNVKRPMKDETHFEVVESGRYIILLLGKALSVVWDRHLSISVVLKQTYQEKVCGLCGNFDGIQNNDLTSSNLQVEEDPVDFGNSWKVSSQCADTRKVPLDSSPATCHNNIMKQTMVDSSCRILTSDVFQDCNKLVDPEPYLDVCIYDTCSCESIGDCACFCDTIAAYAHVCAQHGKVVTWRTATLCPQSCEERNLRENGYECEWRYNSCAPACQVTCQHPEPLACPVQCVEGCHAHCPPGKILDELLQTCVDPEDCPVCEVAGRRFASGKKVTLNPSDPEHCQICHCDVVNLTCEACQEPGG[about 600 residues skipped]
# B3: vWF-HSA dimer S766Y-S769N (other)
# chain: SLYCRNPMVKLVCPADNLRAEGLECTKTCQNYDLECMSMGCVSGCLCPPGMVRHENRCVALERCPCFHQGKEYAPGETVKIGCNTCVCRDRKWNCTDHVCDATCSTIGMAHYLTFDGLKYLFPGECQYVLVQDYCGSNPGTFRILVGNKGCSHPSVKCKKRVTILVEGGEIELFDGEVNVKRPMKDETHFEVVESGRYIILLLGKALSVVWDRHLSISVVLKQTYQEKVCGLCGNFDGIQNNDLTSSNLQVEEDPVDFGNSWKVSSQCADTRKVPLDSSPATCHNNIMKQTMVDSSCRILTSDVFQDCNKLVDPEPYLDVCIYDTCSCESIGDCACFCDTIAAYAHVCAQHGKVVTWRTATLCPQSCEERNLRENGYECEWRYNSCAPACQVTCQHPEPLACPVQCVEGCHAHCPPGKILDELLQTCVDPEDCPVCEVAGRRFASGKKVTLNPSDPEHCQICHCDVVNLTCEACQEPGG[about 600 residues skipped]
# notes: printed 'S766Y-S769N', read as S766Y/P769N
# B4: vWF-HSA dimer S766Y (other)
# chain: SLYCRPPMVKLVCPADNLRAEGLECTKTCQNYDLECMSMGCVSGCLCPPGMVRHENRCVALERCPCFHQGKEYAPGETVKIGCNTCVCRDRKWNCTDHVCDATCSTIGMAHYLTFDGLKYLFPGECQYVLVQDYCGSNPGTFRILVGNKGCSHPSVKCKKRVTILVEGGEIELFDGEVNVKRPMKDETHFEVVESGRYIILLLGKALSVVWDRHLSISVVLKQTYQEKVCGLCGNFDGIQNNDLTSSNLQVEEDPVDFGNSWKVSSQCADTRKVPLDSSPATCHNNIMKQTMVDSSCRILTSDVFQDCNKLVDPEPYLDVCIYDTCSCESIGDCACFCDTIAAYAHVCAQHGKVVTWRTATLCPQSCEERNLRENGYECEWRYNSCAPACQVTCQHPEPLACPVQCVEGCHAHCPPGKILDELLQTCVDPEDCPVCEVAGRRFASGKKVTLNPSDPEHCQICHCDVVNLTCEACQEPGG[about 600 residues skipped]
# B5: vWF-HSA dimer S766Y-P769R (other)
# chain: SLYCRRPMVKLVCPADNLRAEGLECTKTCQNYDLECMSMGCVSGCLCPPGMVRHENRCVALERCPCFHQGKEYAPGETVKIGCNTCVCRDRKWNCTDHVCDATCSTIGMAHYLTFDGLKYLFPGECQYVLVQDYCGSNPGTFRILVGNKGCSHPSVKCKKRVTILVEGGEIELFDGEVNVKRPMKDETHFEVVESGRYIILLLGKALSVVWDRHLSISVVLKQTYQEKVCGLCGNFDGIQNNDLTSSNLQVEEDPVDFGNSWKVSSQCADTRKVPLDSSPATCHNNIMKQTMVDSSCRILTSDVFQDCNKLVDPEPYLDVCIYDTCSCESIGDCACFCDTIAAYAHVCAQHGKVVTWRTATLCPQSCEERNLRENGYECEWRYNSCAPACQVTCQHPEPLACPVQCVEGCHAHCPPGKILDELLQTCVDPEDCPVCEVAGRRFASGKKVTLNPSDPEHCQICHCDVVNLTCEACQEPGG[about 600 residues skipped]
# B6: vWF-HSA dimer S766W-S806A (other)
# chain: SLWCRPPMVKLVCPADNLRAEGLECTKTCQNYDLECMSMGCVAGCLCPPGMVRHENRCVALERCPCFHQGKEYAPGETVKIGCNTCVCRDRKWNCTDHVCDATCSTIGMAHYLTFDGLKYLFPGECQYVLVQDYCGSNPGTFRILVGNKGCSHPSVKCKKRVTILVEGGEIELFDGEVNVKRPMKDETHFEVVESGRYIILLLGKALSVVWDRHLSISVVLKQTYQEKVCGLCGNFDGIQNNDLTSSNLQVEEDPVDFGNSWKVSSQCADTRKVPLDSSPATCHNNIMKQTMVDSSCRILTSDVFQDCNKLVDPEPYLDVCIYDTCSCESIGDCACFCDTIAAYAHVCAQHGKVVTWRTATLCPQSCEERNLRENGYECEWRYNSCAPACQVTCQHPEPLACPVQCVEGCHAHCPPGKILDELLQTCVDPEDCPVCEVAGRRFASGKKVTLNPSDPEHCQICHCDVVNLTCEACQEPGG[about 600 residues skipped]
# Target: T1, recombinant Factor VIII (as described …)
# Experiment: SPR, anti-HSA capture, pH 7.3
# Experimental: (§1) Mouse anti-HSA antibody was immobilized on a CMS chip using standard NHS/EDC coupling chemistry. Typically, the immobilization level was between 10,000 and 12,000 RU. Each batch of vWF-HSA (monomers and dimers) was captured on a single spot in each flow cell for 2 minutes at various concentrations ranging from 0.1-1 μg/ml. Capture levels ranged from 40-150RU. An adjacent spot in which anti-vWF was immobilized, but no vWF-HSA captured was used as a reference. Capture was performed every cycle, before FVIII binding analysis.
# (§2) FVIII was injected at random and in duplicate over all spots in all flow cells at varying concentrations depending on the affinity of the interaction and the pH of the analysis. The association and dissociation of FVIII was monitored for various time frames that best suited the interaction taking place.
# (§3) Post the dissociation period the surface was regenerated with a 30 second injection of 25 mM Glycine pH2.6. Running buffer throughout was 10 mM HEPES, 150 mM NaCl, 10 mM Na Citrate, 2.5 mM CaCl₂, 0.1% BSA, pH7.3 and pH5, while the flow rate was 30 μl/min. Each interaction was measured 4 times (n=4) at 37° C.
Kd [nM],koff [s⁻¹],kon [M⁻¹ s⁻¹],Binder
0.0307,0.000334,1.14e+07,B1
0.0268,0.000285,1.09e+07,B2
0.0289,0.000348,1.21e+07,B3
0.0251,0.000236,1.03e+07,B4
0.0232,0.000275,1.18e+07,B5
0.0354,0.0003,8.88e+06,B6

# Target: T1, recombinant Factor VIII (as described …)
# Experiment: SPR, anti-HSA capture, pH 5.5
# Experimental: as §1, §2, §3
Kd [nM],koff [s⁻¹],kon [M⁻¹ s⁻¹],Binder
1.07,0.00345,3.22e+06,B1
1.79,0.0074,4.14e+06,B2
5.01,0.0102,2.05e+06,B3
2.92,0.0074,3.5e+06,B4
1.4,0.00654,4.66e+06,B5
14.3,0.014,813000,B6
